The other results are listed elsewhere or left out. Values were computed here from the reads of four pooled replicates and scatter widely.
Each sequence was assayed against T1, Pho4 (S. cerevisiae) (UniProt P07270) (assay: relative binding free energy (BET-seq); higher = weaker binding). Settings: reference: library average.
T1 sequence: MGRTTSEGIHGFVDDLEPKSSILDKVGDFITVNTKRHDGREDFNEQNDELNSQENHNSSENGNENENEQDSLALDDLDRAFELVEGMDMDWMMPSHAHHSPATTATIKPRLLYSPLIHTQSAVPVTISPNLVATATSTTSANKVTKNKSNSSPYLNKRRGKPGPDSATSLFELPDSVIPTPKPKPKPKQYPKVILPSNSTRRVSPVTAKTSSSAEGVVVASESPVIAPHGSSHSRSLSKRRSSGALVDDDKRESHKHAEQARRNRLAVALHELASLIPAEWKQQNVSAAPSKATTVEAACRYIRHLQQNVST

Sequence	relative binding free energy [kcal/mol]
ACGAGCACGTGGGGTA	-0.24
TTCTGCACGTGGTTCT	-0.02
GTATGCACGTGCTTGG	-0.07
ATGGACACGTGTGATG	0.13
TGGTACACGTGTCTTG	0.11
GGTTTCACGTGTAAAT	0.32
TTCTTCACGTGGAATG	0.26
TGTGGCACGTGTGGTC	-0.04
ATAGGCACGTGCAGTG	-0.07
TCGGGCACGTGAGTGA	0.17
CTGGCCACGTGTGTTG	-0.17
TGTTCCACGTGTAGTT	0.25
TTGTACACGTGTAGGG	0.16
TTTCACACGTGATTGT	0.06
GTTGACACGTGTACGG	0.07
ATGCACACGTGCGGTT	0.03
TTAGGCACGTGAATTC	0.22
AGGGTCACGTGTTATT	0.08
TTGAGCACGTGAGGGA	0.21
GTGTGCACGTGTAGTT	0.03
GTGATCACGTGTGGAA	0.11
ACGTGCACGTGCAGGT	-0.13
CAAGTCACGTGCGTGT	0.06

Sequence	relative binding free energy [kcal/mol]
GAAGGCACGTGCATTG	-0.01
TCGTACACGTGATATT	0.26
GTGCTCACGTGGGGGG	0.11
GTGATCACGTGTGATC	0.35
GGTGTCACGTGGATAA	0.2
GGAGACACGTGGCGGG	-0.09
TGTTTCACGTGGTTCT	0.33
AGTTGCACGTGAGTCT	0.15
TGGTACACGTGCGTGC	-0.05
TATGGCACGTGATACG	0.02
TTTTACACGTGCGTTG	0.11
TTGGCCACGTGATTAT	0.18
TCAGTCACGTGTGTAG	0.07
GTCATCACGTGTGAGT	0.23
GGAGGCACGTGCTTGT	-0.18
TATCACACGTGTTGTG	0.08
AAGTGCACGTGCTATG	-0.08
GCTGGCACGTGGGGTG	-0.27
CGTATCACGTGATATT	0.39
TGCTGCACGTGCGTTA	-0.07
TATTACACGTGATGGT	0.18
TTAGGCACGTGTACGG	-0.03
GAGTTCACGTGCGGAT	0.35

Sequence	relative binding free energy [kcal/mol]
GGTATCACGTGGCTGG	0.08
TTTAACACGTGGTGAG	-0.01
AGTAACACGTGTGGAT	0.09
ATTGGCACGTGACGGG	0.01
ATGGACACGTGCTTGG	0.01
TTGTGCACGTGCGTGA	-0.11
TTGCTCACGTGAAATT	0.42
ACATGCACGTGGGGTG	-0.35
TGGCGCACGTGGATGT	-0.14
CTTTCCACGTGTGAGT	0.21
TAAATCACGTGAGGTA	0.33
GTTTTCACGTGTGTCA	0.16
TGGTACACGTGGGTTT	0.02
GTCGACACGTGGGGAG	-0.02
TATTTCACGTGCTTCG	0.35
TTGATCACGTGGACGT	0.19
TGGTCCACGTGCGGGT	0.08
CATAACACGTGGGGTT	-0.22
GTTATCACGTGCGGGG	0.21
TAGGTCACGTGAGGAA	0.38
AATTACACGTGTAAGG	0.25
AGTTACACGTGAGAAG	0.22
GGCGCCACGTGTGGGA	-0.09

Sequence	relative binding free energy [kcal/mol]
CTGATCACGTGGGGAG	0.03
AGTCACACGTGCGGTT	0.03
TAAATCACGTGGGTTG	-0.09
GGTGGCACGTGTGTGG	0.01
TGGTACACGTGGTGTT	0.09
TGGCTCACGTGGTAAA	0.32
TTAGCCACGTGTGGGA	-0.04
TGCATCACGTGGGCGT	0
GATGACACGTGTTTTT	0.16
TGCGCCACGTGCGGGT	-0.07
ATGTGCACGTGGGCCT	-0.29
ATGAGCACGTGGGTGC	-0.25
ATTTTCACGTGTTAAG	0.39
TATGACACGTGCGAGG	-0.03
AAGGGCACGTGGCTGG	-0.08
AGTTACACGTGAGAGG	0.23
TGAATCACGTGAGTGG	0.29
TAGGGCACGTGTGATG	-0.08
ATAAGCACGTGTTTGC	-0.04
TTATTCACGTGTGTCT	0.29
GAGTACACGTGTAGTT	0.2
ATGTACACGTGTTTCA	-0.08
TTATGCACGTGCCGTT	-0.19

Sequence	relative binding free energy [kcal/mol]
TTCTGCACGTGTCTGG	0
CTTTACACGTGTTAAT	0.13
GACGTCACGTGTTGTT	0.01
TTCTACACGTGTTATT	-0.11
AGTTACACGTGTGTCG	0.04
CGTTTCACGTGTAGGC	0.16
TAAGTCACGTGGAGCG	0.05
TTATTCACGTGGTTGT	0.25
TCTGTCACGTGGTATG	-0.02
TGTGACACGTGGCATG	-0.1
TGGGCCACGTGGTCAG	-0.17
TGTGGCACGTGACCGG	-0.11
ATTGGCACGTGCAGAT	-0.17
TGGTTCACGTGAATTT	0.4
GGGAGCACGTGGGCAT	-0.3
GATATCACGTGTTGTC	0.23
GACTGCACGTGATTTG	0.29
TATGTCACGTGAGGAT	0.19
TAATACACGTGTTGTT	0.06
TTCGTCACGTGCGATT	0.26
CGCGGCACGTGGTCGT	-0.17
GGAGACACGTGTATGA	0.08
GTTTTCACGTGTGCGG	0.38
